# Measurements published in patent US20130158073A1, “Methods Of Diminishing Co-Abuse Potential” (priority 2004, published 2013).
# Counter-ions that a name gives are not always drawn.
# System: male Sprague-Dawley rats
# Conditions: coadministered with 10% w/v ethanol, i.p. 15 minutes before session; at one or more doses; group average
row,SMILES,percentage of responses during test sessions on the lever associated with ethanol/cocaine
1,"COC(=O)C(c1ccccc1)C1CCCCN1 (racemic) [d,l-MPH, d,l-methylphenidate HCl]",100%
2,COC(=O)[C@H]1[C@@H](OC(=O)c2ccccc2)C[C@@H]2CC[C@H]1N2C [cocaine],100%
